Experimental data published in publication PMC12136788.
The other results are listed elsewhere or left out.

T1: UNK ZnF1-6 (called full-length) (human, UniProt Q9C0B0 30-357)
T1 sequence: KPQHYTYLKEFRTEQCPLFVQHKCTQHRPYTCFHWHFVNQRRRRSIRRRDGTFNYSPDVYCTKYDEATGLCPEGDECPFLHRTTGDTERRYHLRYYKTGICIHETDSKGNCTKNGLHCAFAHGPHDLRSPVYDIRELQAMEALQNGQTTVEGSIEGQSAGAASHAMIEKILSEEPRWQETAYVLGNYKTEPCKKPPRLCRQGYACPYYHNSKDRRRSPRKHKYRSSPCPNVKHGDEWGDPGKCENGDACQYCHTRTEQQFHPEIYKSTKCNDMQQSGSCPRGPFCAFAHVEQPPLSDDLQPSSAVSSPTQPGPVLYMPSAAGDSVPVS

B1: chr1:17826356:17826472:+|CDS|ENSG00000117148|unk|total|mutant (ssRNA)
RNA: GGGAGUUCUACAGUCCGACGAUCAGGGAGCUGAUGGGGGAUCACGUCUCCUCCACCAAGGCCACAGUCUGGGAGGGUUCCAACCGAAACUUCCGUGUCUGGCCCGGAGCGUCCGUGGUGGCUCACCUUUCUACCUACCAGUCUCAACAGAGGAUUGAGCAUCA
B2: chr11:118373572:118373686:+|CDS|ENSG00000110344|unk|total|mutant (ssRNA)
RNA: GGGAGUUCUACAGUCCGACGAUCGAAGACCUUGCUGGGAGUAAUUCUGAGUAUCUCCUGCUUAUUAAAGACUCCGGGUGUUGCCGAAAAUCAUGGCUACUUUUUGAAUCCAUCUCGUUCCAGCCCCCAGGAGAUCAAAGUACACAACAGAGGAUUGAGCAUCA
B3: chr1:161171309:161171815:-|three_prime_utr|ENSG00000158850|control|control|control (ssRNA)
RNA: GGGAGUUCUACAGUCCGACGAUCACCCUCAGCUCCUCACUGUUCUCAGAGGGAUGUGAGGGAACUGAACUCUGGUGCCGUGCUAGGGGGUAGGGGCCUCUCCCUCACUGCUGGACUGGAGCUGGGCUCCUGUAGACCUGAGGGCAACAGAGGAUUGAGCAUCA
B4: chr9:116699486:116699595:+|CDS|ENSG00000119401|unk|FALSE|unique (ssRNA)
RNA: GGGAGUUCUACAGUCCGACGAUCUUCCGCUGCAUUGCUGGCAUGUGUGUGGAUGCUCGUGGUGAUCUCAUCGUGGCUGACAGUAGUCGCAAGGAAAUUCUCCAUUUUCCUAAGGGUGGGGGCUAUAGUGUCCUUAUUCGAGAGCAACAGAGGAUUGAGCAUCA
B5: chr12:120444061:120444162:-|3pUTR|ENSG00000170855|unk|FALSE|unique (ssRNA)
RNA: GGGAGUUCUACAGUCCGACGAUCAAUUGUCAACCUGCAUAUCCUAAAAAUGUCAAAAUGCUGCAUCUGGUUAAAUGUCGGGGUAGGGGGGAAGCUGAAGGUGCUCGCUUCAUUUGCCUUGUUUACUCAUCCUGCCCUGUAAUGCAACAGAGGAUUGAGCAUCA
B6: chr1:225789428:225789553:+|3pUTR|ENSG00000143742|unk|total|mutant (ssRNA)
RNA: GGGAGUUCUACAGUCCGACGAUCUCCGAGAAAGUGUUGGGACAGAAAGUACUUUAUGUAACUAAGUGGGCUGUUCAGAAGCUCCGAGGUCAUUUUUUGUAAUUUUCUUUUUAAUUACUUCCGAGAGCCCGGGAUGCAAAUGUUCAACAGAGGAUUGAGCAUCA

target: T1, UNK ZnF1-6 (called full-length); experiment: nsRBNS (natural sequence RNA bind-n-seq); RBNS binding buffer (assumed for nsRBNS): 25 mM Tris pH 7.5, 150 mM KCl, 3 mM MgCl2, 0.01% Triton X-100, 500 ug/ml BSA, 20 U/ml SUPERase-In, 4 C; UNK is unkempt and MSI1 is Musashi-1; names of the RNAs are library labels; protein concentration not given here; high values mean tight binding

Binder	binding signal [enrichment R]
B1	0.815
B2	0.569
B3	1.02
B4	1.02
B5	0.622
B6	0.526
